# Measured values: the supplement of paper PMC4967469
# Tests used:
# Experiment in all cases: Viability of human cancer cell lines after 72 h of drug (GDSC screen)
# GW-2580 = compound: COc1ccc(COc2ccc(Cc3cnc(N)nc3N)cc2OC)cc1 [GW-2580]; conditions: top dose 20 µM; top dose inferred
# Experimental: (§1)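 Human cancer cell lines in 384-well plates, medium with 10% serum, drug for 72 h over a 256-fold dose range (nine 2-fold or five 4-fold steps up to the top dose). Adherent lines were fixed and stained with the nucleic acid dye Syto60, suspension lines read with resazurin; signal relative to control wells, capped at 0 and 100%. One two-parameter sigmoid per drug and line, fitted in a mixed model over all curves with the slope shared within a line.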
# SGC0946 = compound: CC(C)N(CCCNC(=O)Nc1ccc(C(C)(C)C)cc1)C[C@H]1O[C@@H](n2cc(Br)c3c(N)ncnc32)[C@H](O)[C@@H]1O [SGC0946]; conditions: top dose 0.5 µM; top dose inferred
# Experimental: as §1
# Lenalidomide = compound: Nc1cccc2c1CN(C1CCC(=O)NC1=O)C2=O [Lenalidomide]; conditions: top dose 5 µM; top dose inferred
# Experimental: as §1
# Bryostatin 1 = compound: CCC/C=C/C=C/C(=O)O[C@H]1/C(=C/C(=O)OC)C[C@H]2C[C@H]([C@@H](C)O)OC(=O)C[C@H](O)C[C@@H]3C[C@H](OC(C)=O)C(C)(C)[C@](O)(C[C@@H]4C/C(=C/C(=O)OC)C[C@H](/C=C/C(C)(C)[C@]1(O)O2)O4)O3 [Bryostatin 1]; conditions: top dose 0.008 µM; top dose inferred
# Experimental: as §1
# VX-680 = compound: Cc1cc(Nc2cc(N3CCN(C)CC3)nc(Sc3ccc(NC(=O)C4CC4)cc3)n2)n[nH]1 [VX-680]; conditions: top dose 2 µM
# Experimental: as §1
Cell Line,AUC (GW-2580),IC50 (GW-2580) [µM],AUC (SGC0946),IC50 (SGC0946) [nM],AUC (Lenalidomide),IC50 (Lenalidomide) [µM],AUC (Bryostatin 1),IC50 (Bryostatin 1) [nM],AUC (VX-680),IC50 (VX-680) [nM]
"LU-134-A (small cell lung carcinoma, suspension)",0.986,> 20,0.985,> 500,0.987,> 5,0.983,> 8,0.813,1170
"D-263MG (glioma, adherent)",0.983,> 20,0.98,> 500,0.971,> 5,0.944,> 8,0.982,> 2000
"NB6 (neuroblastoma, adherent)",0.984,> 20,–,–,0.951,> 5,0.979,> 8,0.694,503
"OS-RC-2 (kidney, adherent)",0.975,> 20,0.975,> 500,0.955,> 5,0.893,> 8,0.858,> 2000
"GCIY (stomach, adherent)",0.981,> 20,–,–,0.976,> 5,0.966,> 8,0.897,> 2000
"MY-M12 (leukaemia, suspension)",0.669,3.94,–,–,0.977,> 5,0.867,> 8,0.415,70.7
"NCI-H510A (small cell lung carcinoma, semi-adherent)",0.929,> 20,–,–,0.985,> 5,0.99,> 8,0.622,263
"NEC8 (testis, adherent)",0.978,> 20,–,–,0.972,> 5,0.987,> 8,0.97,> 2000
"SUP-B15 (lymphoblastic leukaemia, suspension)",0.979,> 20,–,–,0.971,> 5,0.969,> 8,0.481,111
"GA-10 (Burkitt lymphoma, suspension)",–,–,0.991,> 500,0.99,> 5,–,–,0.225,23.4
"D-502MG (glioma, adherent)",0.969,> 20,0.931,> 500,0.952,> 5,–,–,0.977,> 2000
"MOLT-4 (lymphoblastic leukaemia, suspension)",0.992,> 20,0.99,> 500,–,–,0.991,> 8,0.359,55.3
"LB996-RCC (kidney, adherent)",0.982,> 20,0.981,> 500,–,–,0.983,> 8,0.943,> 2000
"SR (lymphoid neoplasm, suspension)",0.964,> 20,0.977,> 500,–,–,0.979,> 8,0.365,55.2
"KELLY (neuroblastoma, adherent)",0.989,> 20,0.987,> 500,–,–,0.989,> 8,0.956,> 2000
"VCaP (prostate, adherent)",0.987,> 20,0.972,> 500,–,–,0.926,> 8,0.935,> 2000
"Hs-445 (Hodgkin lymphoma, suspension)",0.98,> 20,0.978,> 500,–,–,0.989,> 8,0.921,> 2000
"ES3 (Ewing sarcoma, adherent)",0.964,> 20,0.983,> 500,–,–,0.982,> 8,0.977,> 2000
"LB647-SCLC (small cell lung carcinoma, semi-adherent)",–,–,0.983,> 500,0.985,> 5,0.985,> 8,0.481,110
"NCI-H1963 (small cell lung carcinoma, suspension)",–,–,–,–,0.991,> 5,0.985,> 8,0.779,707
"OCI-LY-19 (B-cell lymphoma, suspension)",0.936,> 20,0.987,> 500,–,–,0.934,> 8,0.321,41.5
"KALS-1 (glioma, adherent)",0.973,> 20,0.969,> 500,–,–,0.953,> 8,0.833,> 2000
"KMS-12-BM (myeloma, suspension)",0.991,> 20,–,–,0.573,0.476,0.991,> 8,0.97,> 2000
"RL95-2 (endometrium, adherent)",0.978,> 20,0.986,> 500,0.987,> 5,–,–,0.523,145
"MZ7-mel (melanoma, adherent)",0.986,> 20,0.985,> 500,–,–,0.953,> 8,0.91,> 2000
"NB7 (neuroblastoma, adherent)",0.959,> 20,0.921,> 500,–,–,0.986,> 8,0.986,> 2000

# Lines with a small IC50 respond at low doses; where the fit passes the top or lowest dose, that dose stands as a limit. For AUC the same curve is integrated over the 256-fold range of doses and scaled to a fraction: 1 means no effect, lower means more sensitive. For part of these data: Any top dose called inferred comes from the curve model; the source does not state it.
